Experimental data from paper PMC4336329 (PLoS ONE, 2015).
The campaign covered roughly 310,000 compounds. About 2,200 (0.71%) showed an effect of 50% or more. The effect is printed as a negative number. Some of the results follow.

The compounds below were run against human ether-à-go-go-related gene (hERG) potassium channel (human, UniProt Q12809) (assay: primary screen, population patch clamp on CHO cells stably expressing hERG).
Chain of human ether-à-go-go-related gene (hERG) potassium channel (Q12809 whole entry, looked up): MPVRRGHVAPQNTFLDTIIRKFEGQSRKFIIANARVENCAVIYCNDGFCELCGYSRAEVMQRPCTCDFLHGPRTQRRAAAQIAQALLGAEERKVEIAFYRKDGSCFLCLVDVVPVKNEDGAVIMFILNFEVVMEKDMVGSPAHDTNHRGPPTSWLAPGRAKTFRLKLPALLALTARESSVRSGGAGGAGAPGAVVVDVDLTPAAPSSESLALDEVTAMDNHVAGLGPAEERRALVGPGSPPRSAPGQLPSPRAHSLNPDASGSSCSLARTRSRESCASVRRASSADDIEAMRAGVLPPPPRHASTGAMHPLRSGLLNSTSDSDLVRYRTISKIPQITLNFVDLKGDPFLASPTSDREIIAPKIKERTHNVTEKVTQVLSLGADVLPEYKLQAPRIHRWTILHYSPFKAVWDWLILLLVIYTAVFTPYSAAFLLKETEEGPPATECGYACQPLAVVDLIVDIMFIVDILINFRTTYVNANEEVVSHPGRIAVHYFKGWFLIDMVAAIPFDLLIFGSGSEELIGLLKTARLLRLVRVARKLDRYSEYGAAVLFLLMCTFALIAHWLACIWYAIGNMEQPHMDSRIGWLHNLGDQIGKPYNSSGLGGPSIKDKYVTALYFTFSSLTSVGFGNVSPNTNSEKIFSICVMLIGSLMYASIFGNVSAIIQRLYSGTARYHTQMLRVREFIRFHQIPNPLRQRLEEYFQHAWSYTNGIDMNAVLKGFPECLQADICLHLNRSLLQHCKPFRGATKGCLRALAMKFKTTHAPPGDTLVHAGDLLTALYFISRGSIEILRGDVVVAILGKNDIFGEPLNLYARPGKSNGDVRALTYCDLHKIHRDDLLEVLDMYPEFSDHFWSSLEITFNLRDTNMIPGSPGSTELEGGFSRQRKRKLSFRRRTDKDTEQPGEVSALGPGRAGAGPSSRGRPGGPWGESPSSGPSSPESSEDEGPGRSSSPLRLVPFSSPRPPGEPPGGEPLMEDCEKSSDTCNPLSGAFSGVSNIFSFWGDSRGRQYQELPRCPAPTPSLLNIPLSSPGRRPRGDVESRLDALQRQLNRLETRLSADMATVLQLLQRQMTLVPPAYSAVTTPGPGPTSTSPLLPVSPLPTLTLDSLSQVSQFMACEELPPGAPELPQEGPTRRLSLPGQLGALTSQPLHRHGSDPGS

Question: With `C=CCn1c(SCC(=O)Nc2ccc(C(=O)OCC)cc2)nnc1-c1sc(N)nc1C` as the compound, how does the “hERG current change (%, negative = inhibition) at 1uM” value read?
Answer: -3.7%

Question: Which “hERG current change (%, negative = inhibition) at 1uM” value does the source give for `COc1ccc(C(=O)COC(=O)c2ccco2)cc1` here?
Answer: 8.17%

Question: How did the “hERG current change (%, negative = inhibition) at 1uM” value turn out when `Cc1[nH]c2ccccc2c1/C=C(\C#N)C(=O)NC1CC1` was run?
Answer: 6.42%

Question: For `COc1cc(CCN2C(=O)c3cccc4cccc(c34)C2=O)c(S(=O)(=O)NCCO)cc1OC`, which “hERG current change (%, negative = inhibition) at 1uM” value is on record?
Answer: 12.5%

Question: Which “hERG current change (%, negative = inhibition) at 1uM” value does the source give for `Cc1cc(C)n(/N=C/c2c[nH]c3ccccc23)c(=O)c1` here?
Answer: 12%

Question: With `CCc1ccc(NSc2ccccc2[N+](=O)[O-])cc1` as the compound, how does the “hERG current change (%, negative = inhibition) at 1uM” value read?
Answer: 14.4%

Question: `Cc1cccc2nc(CSc3nc4ccccc4[nH]3)cn12` was tested. Which “hERG current change (%, negative = inhibition) at 1uM” value did it give?
Answer: -0.486%

Question: Which “hERG current change (%, negative = inhibition) at 1uM” value does the source give for `Cc1ccc(NC(=O)CC(=O)NCCN2CCOCC2)cc1` here?
Answer: 8.48%

Question: How did the “hERG current change (%, negative = inhibition) at 1uM” value turn out when `Cc1cc(NC(=O)c2c(F)cccc2Cl)no1` was run?
Answer: 7.96%

Question: With `COC(=O)c1ccn(CSc2cc(Cl)ccc2Cl)n1` as the compound, how does the “hERG current change (%, negative = inhibition) at 1uM” value read?
Answer: 4.98%

Question: For `O=C(CCNC(=O)Cn1cnc2ccccc2c1=O)NCC1CCCO1` (centres unmarked), which “hERG current change (%, negative = inhibition) at 1uM” value is on record?
Answer: 1.44%

Question: For `Cc1cc(C(=O)CSc2nc3ccccc3n2C)c(C)n1C`, which “hERG current change (%, negative = inhibition) at 1uM” value is on record?
Answer: 12.9%

Question: How did the “hERG current change (%, negative = inhibition) at 1uM” value turn out when `CSc1nnc(-c2cccn(Cc3ccccc3)c2=O)o1` was run?
Answer: 10.5%

Question: For `COCCn1c(C(F)(F)F)ccc(NC(=O)c2ccccc2)c1=O`, which “hERG current change (%, negative = inhibition) at 1uM” value is on record?
Answer: 3.83%

Question: For `C=CCn1c(O)c(N=NC(=O)CNC(=O)c2cccs2)c2ccccc21`, which “hERG current change (%, negative = inhibition) at 1uM” value is on record?
Answer: 0.478%

Question: With `COc1cccc(CN(C)C(=O)Nc2cccc(C(F)(F)F)c2)c1OC` as the compound, how does the “hERG current change (%, negative = inhibition) at 1uM” value read?
Answer: 9.71%

Question: How did the “hERG current change (%, negative = inhibition) at 1uM” value turn out when `C=CCOc1cccc(C(=O)N2CCCC(Nc3ccc4c(c3)OCCO4)C2)c1` (centres unmarked) was run?
Answer: -1.27%

Question: Which “hERG current change (%, negative = inhibition) at 1uM” value does the source give for `O=C(NNC(=O)c1cc2c(s1)CCCC2)c1ccccc1` here?
Answer: 5.99%

Question: How did the “hERG current change (%, negative = inhibition) at 1uM” value turn out when `Cc1ccc(S(=O)(=O)N2CCOCC2)cc1C(=O)NCC1CCCCC1` was run?
Answer: 2.14%

Question: Which “hERG current change (%, negative = inhibition) at 1uM” value does the source give for `COc1ccc(C(C)NC(=S)NCc2ccc(F)cc2)cc1` (centres unmarked) here?
Answer: 12.4%

Question: With `CCOc1ccc(-n2c(O)c(/C=N/NC(=O)C3COc4ccccc4O3)c3ccccc3c2=O)cc1` (centres unmarked) as the compound, how does the “hERG current change (%, negative = inhibition) at 1uM” value read?
Answer: 8.03%

Question: With `Cc1cccc(NC(=S)N(CCN(C)C)Cc2cccs2)c1` as the compound, how does the “hERG current change (%, negative = inhibition) at 1uM” value read?
Answer: 5.82%

Question: Which “hERG current change (%, negative = inhibition) at 1uM” value does the source give for `CC(C)(C)SCCNS(=O)(=O)c1ccc2ccccc2c1` here?
Answer: -1.67%

Question: With `O=C(COc1ccccc1Cl)NNC(=O)c1ccc(-n2cncn2)c([N+](=O)[O-])c1` as the compound, how does the “hERG current change (%, negative = inhibition) at 1uM” value read?
Answer: 19%

Question: For `C/C(=N\NC(=O)COc1ccc(C(C)(C)C)cc1)c1ccccc1`, which “hERG current change (%, negative = inhibition) at 1uM” value is on record?
Answer: 10.2%

Question: Which “hERG current change (%, negative = inhibition) at 1uM” value does the source give for `c1ccc2c(c1)Cc1cc(CN3CCOCC3)ccc1-2` here?
Answer: 12.7%

Question: For `Cc1ccc(Nc2c([N+](=O)[O-])c(=O)n(C)c3ccccc23)cc1C`, which “hERG current change (%, negative = inhibition) at 1uM” value is on record?
Answer: 1.7%

Question: For `Cc1cc(C)c(NC(=O)CN(C)CC(=O)N(C)CC(=O)Nc2c(Cl)cccc2Cl)c(C)c1`, which “hERG current change (%, negative = inhibition) at 1uM” value is on record?
Answer: 11.1%

Question: How did the “hERG current change (%, negative = inhibition) at 1uM” value turn out when `O=C(NCc1ccccn1)C1CCCN(S(=O)(=O)c2cccc3nsnc23)C1` (centres unmarked) was run?
Answer: 9.24%

Question: Which “hERG current change (%, negative = inhibition) at 1uM” value does the source give for `O=[N+]([O-])c1ccc(C2C3C(c4ccccc4)=NC4(CCCC4)N32)cc1` (centres unmarked) here?
Answer: -0.499%

Question: `CCOc1c(Cl)cc(Cl)cc1CNCCNCCO.Cl` was tested. Which “hERG current change (%, negative = inhibition) at 1uM” value did it give?
Answer: 11.2%

Question: Which “hERG current change (%, negative = inhibition) at 1uM” value does the source give for `COC(=O)c1ccccc1N(C)S(C)(=O)=O` here?
Answer: 10.8%

Question: Which “hERG current change (%, negative = inhibition) at 1uM” value does the source give for `Cc1cccc(CSCCNC(=O)CN(c2cc(C)cc(C)c2)S(C)(=O)=O)c1` here?
Answer: 5.45%

Question: Which “hERG current change (%, negative = inhibition) at 1uM” value does the source give for `CC1CCCCN1S(=O)(=O)c1cccc2cccnc12` (centres unmarked) here?
Answer: -0.0239%

Question: For `O=C(Nc1ccc(CN2CCS(=O)(=O)CC2)cc1)c1ccc(F)cc1`, which “hERG current change (%, negative = inhibition) at 1uM” value is on record?
Answer: 8.38%

Question: For `Cc1cccc(C)c1N(C(=O)c1ccco1)C(C(=O)NC1CCCC1)c1ccncc1` (centres unmarked), which “hERG current change (%, negative = inhibition) at 1uM” value is on record?
Answer: 4.89%

Question: `COc1cc2c(cc1OC)C(c1ccccc1)=NCC2` was tested. Which “hERG current change (%, negative = inhibition) at 1uM” value did it give?
Answer: 2.79%

Question: Which “hERG current change (%, negative = inhibition) at 1uM” value does the source give for `CN(c1ccc(OCC(=O)OCc2nnc(-c3ccccc3)o2)cc1)S(=O)(=O)c1ccc(Cl)cc1` here?
Answer: 3.12%

Question: For `c1ccc(Cn2c(CNc3nc4ccccc4n3CCN3CCCCC3)nc3ccccc32)cc1`, which “hERG current change (%, negative = inhibition) at 1uM” value is on record?
Answer: -5.91%

Question: With `CCOc1ccc(NC(=O)CN2CCN(S(=O)(=O)c3ccc(Cl)cc3)CC2)cc1` as the compound, how does the “hERG current change (%, negative = inhibition) at 1uM” value read?
Answer: 10.8%

Question: For `CCc1c(C)nc2c(OC)cccc2c1Cl`, which “hERG current change (%, negative = inhibition) at 1uM” value is on record?
Answer: 0.737%

Question: For `CCOC(=O)C(NC(=O)OC(C)C)(Nc1nccs1)C(F)(F)F` (centres unmarked), which “hERG current change (%, negative = inhibition) at 1uM” value is on record?
Answer: 9.29%

Question: With `O=C(NC1CCCc2ccccc21)C1CCN(S(=O)(=O)c2cccc(C(F)(F)F)c2)CC1` (centres unmarked) as the compound, how does the “hERG current change (%, negative = inhibition) at 1uM” value read?
Answer: 4.94%

Question: With `CCOC(=O)CN1CC23C=CC(O2)C(C(=O)Nc2ccc(C(C)=O)cc2)C3C1=O` (centres unmarked) as the compound, how does the “hERG current change (%, negative = inhibition) at 1uM” value read?
Answer: 12.1%
